Measured values published in the supplement of paper PMC10126150.
Sequences with one replicate were seen in a single cluster, so their values are uncertain.

The sequences below were run on ATP (assay: switch fluorescence ratio, 500 uM ATP over buffer (Cy3 cluster intensity, sum of 5 cycles each) (fold (ratio)); higher = stronger signal-on switching upon ATP binding; sequences stand for … in TCGTCGGCAGCGTCAGATGTGTATAAGAGACAGTTTTTTTTTTTTTTTTTTTTTTTTT…TC). Conditions: aptamer strand: ATP DNA aptamer (quencher-CACCTGGGGGAGTATTGCGGAGGAAGG + anchor), 100 nM annealed; ATP concentration: 500 uM; one replicate.
Procedure, shortened: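 The fluorescence ratio divides summed target-cycle Cy3 intensity by summed buffer-cycle Cy3 intensity for each cluster and is averaged per switch-domain sequence. Cy3-labelled switching-strand clusters on a modified Illumina MiSeq flow-cell were annealed to 100 nM quencher-labelled ATP aptamer, then imaged in selection buffer and again after 15 min with 500 uM ATP at 22 °C. Five such cycles were run, with NaOH stripping and re-annealing between them, and clusters outside 100-1000 RFU were excluded.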
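Further: ATP exposure 15 min at 22 °C before imaging.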

**Q.** For TATAGAGTCA, which switch fluorescence ratio is on record?
**A.** 0.97

**Q.** For TATAGCATAA, which switch fluorescence ratio is on record?
**A.** 1.07

**Q.** Which switch fluorescence ratio does the source give for TATAGCGATA here?
**A.** 1.19

**Q.** How did the switch fluorescence ratio turn out when TATAGGAGAC was run?
**A.** 0.97

**Q.** TATAGGATA was tested. Which switch fluorescence ratio did it give?
**A.** 0.968

**Q.** TATAGGGATC was tested. Which switch fluorescence ratio did it give?
**A.** 1.02

**Q.** TATAGGTAGC was tested. Which switch fluorescence ratio did it give?
**A.** 0.968

**Q.** Which switch fluorescence ratio does the source give for TATAGGTGTC here?
**A.** 0.994

**Q.** How did the switch fluorescence ratio turn out when TATAGTCATG was run?
**A.** 1.01

**Q.** TATAGTGATT was tested. Which switch fluorescence ratio did it give?
**A.** 1.04

**Q.** With TATAGTTACC as the sequence, how does the switch fluorescence ratio read?
**A.** 1.11

**Q.** How did the switch fluorescence ratio turn out when TATAGTTCCT was run?
**A.** 1.02

**Q.** Which switch fluorescence ratio does the source give for TATAGTTGGG here?
**A.** 1.01

**Q.** Which switch fluorescence ratio does the source give for TATATAAAT here?
**A.** 1.01

**Q.** For TATATAGACG, which switch fluorescence ratio is on record?
**A.** 0.957

**Q.** With TATATAGACT as the sequence, how does the switch fluorescence ratio read?
**A.** 1.01

**Q.** Which switch fluorescence ratio does the source give for TATATCTTAC here?
**A.** 1.08

**Q.** With TATATGACAG as the sequence, how does the switch fluorescence ratio read?
**A.** 1.01

**Q.** How did the switch fluorescence ratio turn out when TATATGGGCC was run?
**A.** 0.989

**Q.** Which switch fluorescence ratio does the source give for TATATGTCC here?
**A.** 1.05

**Q.** Which switch fluorescence ratio does the source give for TATATGTTAG here?
**A.** 1.02

**Q.** TATATTGCTC was tested. Which switch fluorescence ratio did it give?
**A.** 1.01

**Q.** Which switch fluorescence ratio does the source give for TATCAAGGGC here?
**A.** 0.947

**Q.** With TATCACTCTA as the sequence, how does the switch fluorescence ratio read?
**A.** 1.06

**Q.** With TATCAGAGAG as the sequence, how does the switch fluorescence ratio read?
**A.** 0.98

**Q.** How did the switch fluorescence ratio turn out when TATCCACTGG was run?
**A.** 1.06

**Q.** With TATCCCGTTG as the sequence, how does the switch fluorescence ratio read?
**A.** 1.03

**Q.** How did the switch fluorescence ratio turn out when TATCCGGTCC was run?
**A.** 1.08

**Q.** For TATCCGTGTC, which switch fluorescence ratio is on record?
**A.** 1.03

**Q.** TATCCTACTG was tested. Which switch fluorescence ratio did it give?
**A.** 1

**Q.** For TATCCTGGGC, which switch fluorescence ratio is on record?
**A.** 1.05

**Q.** With TATCCTTGTT as the sequence, how does the switch fluorescence ratio read?
**A.** 0.978

**Q.** Which switch fluorescence ratio does the source give for TATCGAGTAC here?
**A.** 1.1

**Q.** Which switch fluorescence ratio does the source give for TATCGAGTTA here?
**A.** 1.05

**Q.** With TATCGATGTC as the sequence, how does the switch fluorescence ratio read?
**A.** 1.01

**Q.** Which switch fluorescence ratio does the source give for TATCGCAAGC here?
**A.** 4.09

**Q.** How did the switch fluorescence ratio turn out when TATCGCGTTT was run?
**A.** 1.09

**Q.** TATCGGACTA was tested. Which switch fluorescence ratio did it give?
**A.** 1

**Q.** For TATCGTAAGA, which switch fluorescence ratio is on record?
**A.** 1.03

**Q.** TATCGTATAG was tested. Which switch fluorescence ratio did it give?
**A.** 0.963

**Q.** With TATCGTCCTG as the sequence, how does the switch fluorescence ratio read?
**A.** 0.997

**Q.** For TATCGTTACG, which switch fluorescence ratio is on record?
**A.** 1.05

**Q.** TATCGTTAG was tested. Which switch fluorescence ratio did it give?
**A.** 0.966

**Q.** Which switch fluorescence ratio does the source give for TATCTACGTT here?
**A.** 1.09

**Q.** How did the switch fluorescence ratio turn out when TATCTAGAAG was run?
**A.** 1.01

**Q.** Which switch fluorescence ratio does the source give for TATCTCGATC here?
**A.** 1.02

**Q.** How did the switch fluorescence ratio turn out when TATCTCGGCG was run?
**A.** 0.996

**Q.** Which switch fluorescence ratio does the source give for TATCTCGGTG here?
**A.** 1.03

**Q.** TATGAACAGT was tested. Which switch fluorescence ratio did it give?
**A.** 0.978

**Q.** Which switch fluorescence ratio does the source give for TATGACAGCC here?
**A.** 1.08

**Q.** For TATGACCATT, which switch fluorescence ratio is on record?
**A.** 0.957

**Q.** For TATGACGAAA, which switch fluorescence ratio is on record?
**A.** 1.17

**Q.** TATGACGGG was tested. Which switch fluorescence ratio did it give?
**A.** 1.01

**Q.** Which switch fluorescence ratio does the source give for TATGAGAAAA here?
**A.** 1.1

**Q.** For TATGAGAAAT, which switch fluorescence ratio is on record?
**A.** 1.02

**Q.** For TATGATATAA, which switch fluorescence ratio is on record?
**A.** 1.01

**Q.** Which switch fluorescence ratio does the source give for TATGATCTGG here?
**A.** 0.983

**Q.** Which switch fluorescence ratio does the source give for TATGCAAACC here?
**A.** 1.12

**Q.** How did the switch fluorescence ratio turn out when TATGCAGGGC was run?
**A.** 1.02

**Q.** With TATGCCACAG as the sequence, how does the switch fluorescence ratio read?
**A.** 0.981

**Q.** TATGCTATGG was tested. Which switch fluorescence ratio did it give?
**A.** 1.01

**Q.** TATGCTCGCA was tested. Which switch fluorescence ratio did it give?
**A.** 1.03

**Q.** Which switch fluorescence ratio does the source give for TATGCTGT here?
**A.** 1.01

**Q.** How did the switch fluorescence ratio turn out when TATGCTGTGT was run?
**A.** 1.05

**Q.** For TATGGAGTG, which switch fluorescence ratio is on record?
**A.** 1.01

**Q.** Which switch fluorescence ratio does the source give for TATGGGCAGA here?
**A.** 1.02

**Q.** For TATGGGTGTA, which switch fluorescence ratio is on record?
**A.** 0.997

**Q.** With TATGGTCAGG as the sequence, how does the switch fluorescence ratio read?
**A.** 1

**Q.** TATGTACAGC was tested. Which switch fluorescence ratio did it give?
**A.** 1.04

**Q.** How did the switch fluorescence ratio turn out when TATGTAGCTC was run?
**A.** 1.13

**Q.** With TATGTCGCTC as the sequence, how does the switch fluorescence ratio read?
**A.** 1.05

**Q.** With TATGTCTTCC as the sequence, how does the switch fluorescence ratio read?
**A.** 1.65

**Q.** With TATGTGAAAG as the sequence, how does the switch fluorescence ratio read?
**A.** 1.03

**Q.** How did the switch fluorescence ratio turn out when TATGTGATGC was run?
**A.** 1.04

**Q.** How did the switch fluorescence ratio turn out when TATGTGCGGT was run?
**A.** 0.973

**Q.** Which switch fluorescence ratio does the source give for TATGTGCTCA here?
**A.** 0.991

**Q.** Which switch fluorescence ratio does the source give for TATGTGTCGG here?
**A.** 1.03

**Q.** How did the switch fluorescence ratio turn out when TATGTGTCTA was run?
**A.** 0.991

**Q.** TATGTGTTGA was tested. Which switch fluorescence ratio did it give?
**A.** 1.04

**Q.** Which switch fluorescence ratio does the source give for TATGTGTTT here?
**A.** 1.03

**Q.** Which switch fluorescence ratio does the source give for TATGTTAAT here?
**A.** 1

**Q.** How did the switch fluorescence ratio turn out when TATGTTCTTG was run?
**A.** 0.972

**Q.** For TATGTTGAAT, which switch fluorescence ratio is on record?
**A.** 0.981

**Q.** With TATGTTTTG as the sequence, how does the switch fluorescence ratio read?
**A.** 1.01

**Q.** TATTAAGGAA was tested. Which switch fluorescence ratio did it give?
**A.** 1.01

**Q.** TATTAATATC was tested. Which switch fluorescence ratio did it give?
**A.** 1.02

**Q.** TATTACATGA was tested. Which switch fluorescence ratio did it give?
**A.** 1.03

**Q.** With TATTACCTAT as the sequence, how does the switch fluorescence ratio read?
**A.** 1.06

**Q.** TATTACTTTT was tested. Which switch fluorescence ratio did it give?
**A.** 1.01

**Q.** TATTAGCAAG was tested. Which switch fluorescence ratio did it give?
**A.** 1.06

**Q.** For TATTAGCGCG, which switch fluorescence ratio is on record?
**A.** 1.04

**Q.** For TATTAGCTGC, which switch fluorescence ratio is on record?
**A.** 1

**Q.** How did the switch fluorescence ratio turn out when TATTATAATG was run?
**A.** 0.983

**Q.** For TATTATAG, which switch fluorescence ratio is on record?
**A.** 1

**Q.** Which switch fluorescence ratio does the source give for TATTATCTG here?
**A.** 1.04

**Q.** With TATTCAGCTT as the sequence, how does the switch fluorescence ratio read?
**A.** 1

**Q.** TATTCAGTTA was tested. Which switch fluorescence ratio did it give?
**A.** 0.986

**Q.** With TATTCCGTCT as the sequence, how does the switch fluorescence ratio read?
**A.** 1.11

**Q.** TATTCCTCAC was tested. Which switch fluorescence ratio did it give?
**A.** 2.61

**Q.** Which switch fluorescence ratio does the source give for TATTCGAAT here?
**A.** 0.959

**Q.** TATTCGCATT was tested. Which switch fluorescence ratio did it give?
**A.** 1.37
